Measured values: the supplement of paper PMC10126150
Values marked as one replicate rest on one cluster of the flow cell; about a third of the high ones do not repeat.

System: ATP
Test: switch fluorescence ratio, 500 uM ATP over buffer (Cy3 cluster intensity, sum of 5 cycles each) (fold (ratio)); higher = stronger signal-on switching upon ATP binding; sequences stand for … in TCGTCGGCAGCGTCAGATGTGTATAAGAGACAGTTTTTTTTTTTTTTTTTTTTTTTTT…TC
Conditions: aptamer strand: ATP DNA aptamer (quencher-CACCTGGGGGAGTATTGCGGAGGAAGG + anchor), 100 nM annealed; ATP concentration: 500 uM; one replicate
In short: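 For every switch-domain sequence, the fluorescence ratio is the mean of per-cluster values, each being summed target-cycle Cy3 intensity over summed buffer-cycle Cy3 intensity. Clusters outside 100-1000 RFU were excluded. On a modified Illumina MiSeq flow-cell, the Cy3-labelled switching-strand clusters were annealed to 100 nM quencher-labelled ATP aptamer, imaged in selection buffer and then after 15 min with 500 uM ATP at 22 °C. Five such cycles were run, with NaOH stripping and re-annealing between them.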
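Note: ATP exposure 15 min at 22 °C before imaging.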

Sequence	switch fluorescence ratio
ACGCGATAAT	1.78
TGATTATACG	0.961
CCATCCGGCC	1.55
CACCTTCTCT	1.15
AAATTATTTA	0.996
GACTGGATG	1.03
TGTCATACTA	1.27
GCATTATCTC	1.6
TCCGACGGGT	1.08
GCGTGGCATT	1
AACCAGGTTC	1.04
GGACAGTTTG	0.977
AGGCACAACA	1.07
GCGCATTTGT	1
GTCGGAAAAG	1.01
TGTGGCTGGG	0.996
CGGCAGCGTC	1.04
GGCGTGAGCA	0.989
TGTTAGGACT	1.01
TTCCTGCTAG	1.01
GGTGTAAC	0.949
ACATTTACCG	1.22
ATACTAAATG	1.04
TGCGTTGAAG	1.04
AATGGGCAAC	0.973
TTTTAACAT	1.03

Sequence	switch fluorescence ratio
CAGTTATTCT	0.995
TCTGGATGGA	0.997
CGAATCGGAA	1.04
ATGTGTTTCT	0.994
TGTGTACGAA	0.965
TGGACGATGT	1.02
GCACGACAGT	1.03
AACAGGTTGG	1.01
ATGAAATGG	1.01
GTTTCCGGAA	1.2
AGGGTGGGCC	0.941
CGGACGCTG	1.03
AGGAGAAGTT	1.04
AAGGTTTTG	0.966
CTTCAGTTTG	1.04
CGTGTAGGCA	0.996
GATGGGTAAC	1.04
GCATTGCTGT	1
CCGTTTTACT	2.64
CATCTCAGGA	0.985
TACCGGACC	1.45
TTCAATAATT	0.974
TACACGGATG	1
TTCTATTCGC	1.06
TCCAGGCGGA	1.01
ATGTGGTCAA	0.953

Sequence	switch fluorescence ratio
ACAGTAGGGG	1.03
ACGCACTTGA	1.32
GGCGTTTAGT	1.02
CAATGGCTGG	1.06
TGGCGTACGA	0.977
CAGCGACGA	1.02
CGTGGGTATC	0.962
TGAGTGCCTC	0.974
GTAATATAGA	1.02
ATGAGACTGA	0.991
AACAAAGCAT	1.04
TCCTGAGCGC	0.93
GCCCCTGGGC	1
GAAGTACGAA	1.06
TGATTTAGCA	1.03
TATCCCCGGG	0.985
CAATCTGTGC	0.938
GAAGGGCTAT	0.978
GTTCCGACTG	1.33
ACTCGTCAAA	1.04
TGTGGCTTCA	1.06
TTACGGTTG	1.01
GCGGGGGGC	0.968
AAGAGGACTC	0.935
AATATGTCAT	1.02
CGCGTTCCGG	1.01

Sequence	switch fluorescence ratio
TCTGTTCTTA	1
GCGATGTAGC	1.07
CTATGCGC	1.07
TCACCTATGT	1.02
CCGCGTTATT	2.34
AGTGGAGCAA	2.05
ATGAACATTC	1.02
AAAGTTGGAC	1.03
TTGGAGAACA	1.06
GCGTTGGTTC	1.03
AATCGATATA	1.03
GCGCAGGCAG	1.02
TAGCAGAAGC	1.03
ACGGCTGAAG	1.02
ATCACCTTCA	2.16
AGCTCATATG	0.949
GGGGATTCAC	1.01
AGGCCTGCAC	1.01
GTATATAGGG	0.97
TCCAAGGCGT	1.11
ATCAGTAAGG	0.997
TCCAATGTCA	1.03
TCGGCTTTTG	1
GTTGGGATCC	1
CGGATGAGAA	0.969
ACCCCGTCGG	1.03

Sequence	switch fluorescence ratio
GCATACCTCT	1.06
CATATATTCA	1.03
CCTTGCTTGG	1.06
CGATCAGTTA	0.984
ATCCCAATGA	1.29
CAGCAGTGGA	0.997
AGAAAGCTGT	0.953
ATCACTCGCG	1.04
TTCCAGTGCC	1.12
GAAGGCAGAG	1.03
CATTAACCAG	1.01
AGTACATTTA	1.01
CAAATGCCTT	1.08
AGCAGTGACG	1.01
CAGCCGGCGG	0.958
GCTGCAGGTG	3.13
TAATTCTAGG	1.02
TTCGCGCCTG	1.01
GCGTTCCTGC	0.972
CCTTCAATGT	1.55
GGATTGAAAT	0.959
AGTCCGTGGG	1.01
TGAAAACAAA	1.03
ACCAAGTGCA	0.976
CATAGAGGTG	1.07
GATATCATAA	1.02

Sequence	switch fluorescence ratio
ATATTCGAGA	0.971
CGAAATACGA	2.85
AGACTGCGGA	0.982
TCCAGCAT	1.26
TGTCAATAGC	1.15
GAGAGGGACT	0.994
TTTGAGCCAA	0.983
AGTTGGTCCA	1.01
TGCCTATGTT	0.98
AGTGGCACAT	1.04
CTGGGGCCTG	1.01
GGAAAGCATA	0.999
TTGCTTTCCT	1.04
ATGTTTGTGC	0.963
AGTAAGCTTG	0.986
GGCCGTAACA	0.983
TGCTGAACGA	1.01
CCAATGATTA	0.993
CTGTAATCAA	1.07
CTTAGGGCT	0.99
GCGCCGCTGA	1.51
CGTAATGTAC	1.75
CAGCCACTCG	1.09
